# Some of the results follow.
# B1: AAL (Aleuria aurantia), P18891 (protein)
# chain: PTEFLYTSKIAAISWAATGGRQQRVYFQDLNGKIREAQRGGDNPWTGGSSQNVIGEAKLFSPLAAVTWKSAQGIQIRVYCVNKDNILSEFVYDGSKWITGQLGSVGVKVGSNSKLAALQWGGSESAPPNIRVYYQKSNGSGSSIHEYVWSGKWTAGASFGSTVPGTGIGATAIGPGRLRIYYQATDNKIREHCWDSNSWYVGGFSASASAGVSIAAISWGSTPNIRVYWQKGREELYEAAYGGSWNTPGQIKDASRPTPSLPDTFIAANSSGNIDISVFFQASGVSLQQWQWISGKGWSIGAVVPTGTPAGW
# Legend:
# Assay in all cases: glycan array binding signal (z-score within array); higher = stronger binding
# Conditions in all cases: glycan notation: IUPAC condensed, linker removed
# [1] = molecular target: GlcNAc(b1-2)Man(a1-3)[GlcNAc(b1-4)][GlcNAc(b1-2)Man(a1-6)]Man(b1-4)GlcNAc(b1-4)GlcNAc
# In short: (§1)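 Negative Z-scores can be read as non-binding. The Z-score is calculated within each array and then averaged across arrays of one protein sequence at different concentrations or buffers and across linkers. Arrays, 3228 in all, were curated from the Consortium for Functional Glycomics database and kept only where the protein sequence was available.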
# [2] = molecular target: GlcNAc(b1-2)[GlcNAc(b1-4)]Man(a1-3)[GlcNAc(b1-2)Man(a1-6)]Man(b1-4)GlcNAc(b1-4)GlcNAc
# In short: as §1
# [3] = molecular target: GlcNAc(b1-2)[GlcNAc(b1-4)]Man(a1-3)[GlcNAc(b1-4)][GlcNAc(b1-2)Man(a1-6)]Man(b1-4)GlcNAc(b1-4)GlcNAc
# In short: as §1
# [4] = molecular target: GlcNAc(b1-2)[GlcNAc(b1-4)]Man(a1-3)[GlcNAc(b1-4)][GlcNAc(b1-2)[GlcNAc(b1-6)]Man(a1-6)]Man(b1-4)GlcNAc(b1-4)GlcNAc
# In short: as §1
# [5] = molecular target: GlcNAc(b1-2)[GlcNAc(b1-6)]Man(a1-6)[GlcNAc(b1-2)Man(a1-3)]Man(b1-4)GlcNAc(b1-4)GlcNAc
# In short: as §1
# [6] = molecular target: GlcNAc(b1-2)[GlcNAc(b1-6)]Man(a1-6)[GlcNAc(b1-2)Man(a1-3)][GlcNAc(b1-4)]Man(b1-4)GlcNAc(b1-4)GlcNAc
# In short: as §1
# GlcNAc(b1-3)Gal = molecular target: GlcNAc(b1-3)Gal
# In short: as §1
# [7] = molecular target: GlcNAc(b1-3)Gal(b1-3)GalNAc
# In short: as §1
# GlcNAc(b1-3)Gal(b1-4)Glc = molecular target: GlcNAc(b1-3)Gal(b1-4)Glc
# In short: as §1
# [8] = molecular target: GlcNAc(b1-3)Gal(b1-4)GlcNAc
# In short: as §1
# [9] = molecular target: GlcNAc(b1-3)Gal(b1-4)GlcNAc(b1-3)Gal(b1-4)GlcNAc
# In short: as §1
# GlcNAc(b1-3)GalNAc = molecular target: GlcNAc(b1-3)GalNAc
# In short: as §1
# GlcNAc(b1-3)Man = molecular target: GlcNAc(b1-3)Man
# In short: as §1
# [10] = molecular target: GlcNAc(b1-3)[GlcNAc(b1-4)][GlcNAc(b1-6)]GlcNAc
# In short: as §1
# [11] = molecular target: GlcNAc(b1-3)[GlcNAc(b1-6)]Gal(b1-4)GlcNAc
# In short: as §1
# [12] = molecular target: GlcNAc(b1-3)[GlcNAc(b1-6)]GalNAc
# In short: as §1
# [13] = molecular target: GlcNAc(b1-3)[GlcNAc(b1-6)]GlcNAc
# In short: as §1
# [14] = molecular target: GlcNAc(b1-3)[GlcNAc(b1-6)]GlcNAc(b1-4)GlcNAc
# In short: as §1
# [15] = molecular target: GlcNAc(b1-4)Gal(b1-4)GlcNAc
# In short: as §1
# GlcNAc(b1-4)GlcNAc = molecular target: GlcNAc(b1-4)GlcNAc
# In short: as §1
# [16] = molecular target: GlcNAc(b1-4)GlcNAc(b1-4)GlcNAc
# In short: as §1
# [17] = molecular target: GlcNAc(b1-4)GlcNAc(b1-4)GlcNAc(b1-4)GlcNAc(b1-4)GlcNAc
# In short: as §1
# [18] = molecular target: GlcNAc(b1-4)GlcNAc(b1-4)GlcNAc(b1-4)GlcNAc(b1-4)GlcNAc(b1-4)GlcNAc
# In short: as §1
# [19] = molecular target: GlcNAc(b1-4)[GlcNAc(b1-6)]GalNAc
# In short: as §1
# [20] = molecular target: GlcNAc(b1-6)Gal(b1-4)GlcNAc
# In short: as §1
# GlcNAc(b1-6)GalNAc = molecular target: GlcNAc(b1-6)GalNAc
# In short: as §1
# GlcNAc3Prop(b1-4)GlcNAc = molecular target: GlcNAc3Prop(b1-4)GlcNAc
# In short: as §1
# [21] = molecular target: GlcNAc6S(b1-3)Gal(b1-4)GlcNAc
# In short: as §1
# Kdn(a2-3)Gal(b1-3)GalNAc = molecular target: Kdn(a2-3)Gal(b1-3)GalNAc
# In short: as §1
# Kdn(a2-3)Gal(b1-3)GlcNAc = molecular target: Kdn(a2-3)Gal(b1-3)GlcNAc
# In short: as §1
# Kdn(a2-3)Gal(b1-4)Glc = molecular target: Kdn(a2-3)Gal(b1-4)Glc
# In short: as §1
# Kdn(a2-3)Gal(b1-4)GlcNAc = molecular target: Kdn(a2-3)Gal(b1-4)GlcNAc
# In short: as §1
# [22] = molecular target: Kdn(a2-3)Gal(b1-4)[Fuc(a1-3)]GlcNAc
# In short: as §1
# Kdn(a2-6)Gal(b1-4)GlcNAc = molecular target: Kdn(a2-6)Gal(b1-4)GlcNAc
# In short: as §1
# [23] = molecular target: Man(a1-2)Man(a1-2)Man(a1-3)Man
# In short: as §1
# [24] = molecular target: Man(a1-2)Man(a1-2)Man(a1-3)[Man(a1-2)Man(a1-3)[Man(a1-2)Man(a1-6)]Man(a1-6)]Man(b1-4)GlcNAc(b1-4)GlcNAc
# In short: as §1
binder,measurement,setting,value
B1,glycan array binding signal (z-score),[1],-0.43
same,glycan array binding signal (z-score),[2],-0.425
same,glycan array binding signal (z-score),[3],-0.431
same,glycan array binding signal (z-score),[4],-0.418
same,glycan array binding signal (z-score),[5],-0.377
same,glycan array binding signal (z-score),[6],-0.444
same,glycan array binding signal (z-score),GlcNAc(b1-3)Gal,-0.501
same,glycan array binding signal (z-score),[7],-0.515
same,glycan array binding signal (z-score),GlcNAc(b1-3)Gal(b1-4)Glc,-0.491
same,glycan array binding signal (z-score),[8],-0.526
same,glycan array binding signal (z-score),[9],-0.545
same,glycan array binding signal (z-score),GlcNAc(b1-3)GalNAc,-0.47
same,glycan array binding signal (z-score),GlcNAc(b1-3)Man,-0.418
same,glycan array binding signal (z-score),[10],-0.468
same,glycan array binding signal (z-score),[11],-0.514
same,glycan array binding signal (z-score),[12],-0.426
same,glycan array binding signal (z-score),[13],-0.532
same,glycan array binding signal (z-score),[14],-0.567
same,glycan array binding signal (z-score),[15],-0.525
same,glycan array binding signal (z-score),GlcNAc(b1-4)GlcNAc,-0.432
same,glycan array binding signal (z-score),[16],-0.502
same,glycan array binding signal (z-score),[17],-0.52
same,glycan array binding signal (z-score),[18],-0.518
same,glycan array binding signal (z-score),[19],-0.515
same,glycan array binding signal (z-score),[20],-0.506
same,glycan array binding signal (z-score),GlcNAc(b1-6)GalNAc,-0.474
same,glycan array binding signal (z-score),GlcNAc3Prop(b1-4)GlcNAc,-0.425
same,glycan array binding signal (z-score),[21],-0.391
same,glycan array binding signal (z-score),Kdn(a2-3)Gal(b1-3)GalNAc,-0.425
same,glycan array binding signal (z-score),Kdn(a2-3)Gal(b1-3)GlcNAc,-0.506
same,glycan array binding signal (z-score),Kdn(a2-3)Gal(b1-4)Glc,-0.439
same,glycan array binding signal (z-score),Kdn(a2-3)Gal(b1-4)GlcNAc,-0.513
same,glycan array binding signal (z-score),[22],-0.19
same,glycan array binding signal (z-score),Kdn(a2-6)Gal(b1-4)GlcNAc,-0.435
same,glycan array binding signal (z-score),[23],-0.508
same,glycan array binding signal (z-score),[24],-0.622

# From the supplement of paper PMC8728848
